In all, about 110,000 compounds were measured (“z-score”: median about -0.1, highest 2% from about 2 on). This is one part of the list. Active and inactive are the calls of the source.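 The calls were made as follows: active = z-score in the third read window above 3 or below -3; inactive = the rest.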
Molecular target: Metabotropic glutamate receptor 8 (Rattus norvegicus) (UniProt P70579)
Experiment: mGluR8 Gi/Go-coupled signaling modulation – cell-based, rat, thallium flux, HTS, primary screen (AID 488969)
Settings: HEK293 rat mGluR8, GIRK (G protein-gated inwardly rectifying potassium channel) thallium flux, FluoZin2; at 10 µM; stronger effect = higher value; submaximal glutamate (EC20) added with thallium

Chain of UniProt P70579 (P70579 whole entry, looked up): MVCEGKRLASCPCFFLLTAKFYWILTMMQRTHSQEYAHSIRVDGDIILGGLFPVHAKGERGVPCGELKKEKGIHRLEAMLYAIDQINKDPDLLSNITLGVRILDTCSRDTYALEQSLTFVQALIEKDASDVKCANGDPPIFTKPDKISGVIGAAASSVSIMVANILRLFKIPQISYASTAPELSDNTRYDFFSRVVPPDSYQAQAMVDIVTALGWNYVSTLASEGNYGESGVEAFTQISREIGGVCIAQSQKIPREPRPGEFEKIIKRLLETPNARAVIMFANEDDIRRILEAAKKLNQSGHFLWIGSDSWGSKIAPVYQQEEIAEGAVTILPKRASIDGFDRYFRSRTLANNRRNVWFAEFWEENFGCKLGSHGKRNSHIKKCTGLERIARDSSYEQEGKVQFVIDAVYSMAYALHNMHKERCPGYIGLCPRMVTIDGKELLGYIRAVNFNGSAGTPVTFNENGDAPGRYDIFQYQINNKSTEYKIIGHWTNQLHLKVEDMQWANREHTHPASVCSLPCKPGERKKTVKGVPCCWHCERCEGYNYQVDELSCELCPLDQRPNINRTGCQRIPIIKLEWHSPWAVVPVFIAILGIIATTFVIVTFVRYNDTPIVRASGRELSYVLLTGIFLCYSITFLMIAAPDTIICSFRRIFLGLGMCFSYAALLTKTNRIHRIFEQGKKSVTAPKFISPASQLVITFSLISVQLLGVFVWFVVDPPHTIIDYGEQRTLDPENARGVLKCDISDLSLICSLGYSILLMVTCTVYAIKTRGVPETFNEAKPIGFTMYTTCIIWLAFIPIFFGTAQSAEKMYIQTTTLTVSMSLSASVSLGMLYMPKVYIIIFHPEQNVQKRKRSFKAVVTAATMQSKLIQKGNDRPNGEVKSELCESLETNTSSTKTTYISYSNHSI

SMILES	z-score
COCCNC(=O)c1nn2cccnc2c1Cl	-0.587
CCOCCCNC(=O)CN1C(=O)/C(=C\c2ccc(C)cc2)Sc2ccccc21	-0.241
COc1ccccc1-c1cc(C(F)(F)F)n2ncc(S(=O)(=O)c3ccccc3)c2n1	-0.206
O=[N+]([O-])c1ccc(OCC(O)CN2CCN(c3ccccc3F)CC2)cc1 (stereo unspecified)	-0.357
Nc1nonc1OCCc1ccccc1	0.363
COc1ccccc1N=C(C)C1=C(O)COC1=O	-0.206
O=C(Nc1nnc(-c2ccccc2Cl)o1)c1cccnc1	-0.363
CCC1(C)Cc2c(C#N)c(N)n(N)c(=S)c2CO1 (stereo unspecified)	-0.24
COc1ccc(OCCSc2nc3ccccc3n2CC(=O)O)cc1	0.432
CCCOc1cccc(-c2cc(-c3n[nH]c(=S)n3CC)c3ccccc3n2)c1	active: 4.22
CC#CCN(CC#CC)S(=O)(=O)c1ccc(-n2cnnn2)c(OC)c1	-0.162
O=C(NCCC1=CCCCC1)c1cnsn1	-0.0586
O=S(=O)(N/N=C\C=C\c1ccccc1)c1ccc(Br)cc1	-0.289
COc1ccc(NC(=O)CCN2C(=O)c3ccc([N+](=O)[O-])cc3C2=O)c(OC)c1	-0.0788
Cn1c(=O)c2c(ncn2CC(COCc2ccc(Cl)cc2)OCc2ccc(Cl)cc2)n(C)c1=O (stereo unspecified)	-0.2
Cc1cc(C)cc(N2C(=O)C3CC=CCC3C2=O)c1 (stereo unspecified)	0.129
COc1ccc(S(=O)(=O)N2Cc3ccccc3CC2C(=O)N2CCOCC2)cc1 (stereo unspecified)	0.235
COC(=O)c1ccc(Oc2nc(N3CCCCC3)nc(N3CCOCC3)n2)cc1	-0.157
CCN(C(=O)c1ccccc1Cl)c1ccccc1	-0.51

SMILES	z-score
O=C(NCCN=C1NS(=O)(=O)c2ccccc21)c1ccncc1	-0.177
COCCCn1c(SCc2ccccc2)nc2cc(OC)c(OC)cc2c1=N	-0.26
Cc1cc(C(=O)Nc2c(C)n(C)n(-c3ccccc3)c2=O)cs1	-0.144
CCc1ccccc1NCC(=O)Nc1ccc(Cl)c(C(F)(F)F)c1	-0.0436
CCOC(=O)Cn1c(=NC(=O)C(C)(C)C)sc2cc([N+](=O)[O-])ccc21	-0.331
CCN(CC)CCn1c(=S)[nH]c2ncccc2c1=O	0.0629
Cc1ccccc1NC(=O)Cc1nc(-c2ccc3ccccc3c2)cs1	-0.316
COc1cccc(-c2nc(CS(=O)CC(=O)NC3CCCC3)c(C)o2)c1 (stereo unspecified)	-0.403
Cc1nnc(SCC(=O)Nc2sc3c(c2C(N)=O)CCCC3)[nH]c1=O	-0.379
O=C1CN(c2nc(-c3ccccc3)c3ccccc3n2)c2ccccc2N1	0.0233
COc1ccc(OCCn2nnc(-c3ccc(Cl)cc3)n2)cc1	0.195
COCC(C)n1c(SCC(=O)NNC(=O)c2ccccc2)nc2ccccc2c1=O (stereo unspecified)	-0.346
O=C(Cc1ccc(Cl)cc1)NCCS(=O)c1ccc(Cl)cc1 (stereo unspecified)	0.254
Cc1nn(S(=O)(=O)c2cccs2)c(C)c1Sc1ccccc1	-0.19
CCOc1ccc(CCNC(=O)CN(C)S(=O)(=O)c2ccc3c(c2)CCC(=O)N3)cc1OCC	0.0665
N=C(N)SCc1nc2ccccn2c1Br	0.308
O=C(CCc1nc2ccccc2c(=O)[nH]1)OCC(=O)c1ccc(C2CCCCC2)cc1	0.117
CCNC(=S)N1CCN(CCN=CC2=C(O)CC(c3ccco3)CC2=O)CC1 (stereo unspecified)	-0.0719
CCOc1ccc(C2=Nc3ccc(Br)cc3C(c3ccc(N4CCOCC4)cc3)=NN2)cc1	-0.548

SMILES	z-score
O=C(Nc1nc(-c2ccccc2)cs1)C1CCCN(S(=O)(=O)c2cccc([N+](=O)[O-])c2)C1 (stereo unspecified)	0.108
Cc1ccc(OCC(=O)N/N=C/c2ccncc2)cc1	0.0746
Cc1c(C(=O)OC(C)C)sc(N)c1C(=O)OC(C)C	1.8
COc1cc(/C=N/NC(N)=S)ccc1OC(=O)c1ccc(C)cc1	-0.0936
Cc1cc(NS(=O)(=O)c2ccc(Br)s2)no1	-0.189
CCn1c(SCC(=O)N/N=C/c2cc(OC)c(O)c(OC)c2)nc2ccccc21	0.476
CCCNC(=S)N1CCC(C(=O)c2ccc(OC)cc2)CC1	-0.136
O=C(O)c1ccccc1NC(=O)C1CCCO1 (stereo unspecified)	0.0656
O=S(=O)(NCc1ccccc1)c1ccc(Cl)c(S(=O)(=O)NCc2ccccc2)c1	0.165
Cc1cc(NC(=O)CCC2CCCCC2)no1	0.0226
COc1cc(C(=O)Nc2nccs2)c(Br)c(OC)c1OC	0.273
O=C(CN1CCCN(Cc2ccc(F)cc2Cl)C1=O)NC1CCCCCC1	-0.345
COc1ccccc1Nc1nnc(SCC(=O)N2CCCC2)s1	-0.227
Cc1ccc(-n2c(C)cc(C(=O)NS(=O)(=O)c3ccc(C)cc3)c2C)cc1	-0.116
CCOC(=O)c1cnc(Nc2nc3ccccc3o2)nc1C	-0.195
COc1ccc(-n2c(Cc3cc(=O)[nH]c(=O)[nH]3)nnc2SCC(=O)N2CCC(C)CC2)cc1	-0.449
COc1ccccc1C(=O)NCCCn1cc(Br)c(C)n1	-0.16
CCC(C)NC(=O)C1CCN(S(=O)(=O)c2ccc(OC)cc2)CC1 (stereo unspecified)	0.321

Reference: PubChem BioAssay AID488969 (Vanderbilt High Throughput Screening Facility, 2010)
